{"source": "paper PMC6919601", "about": "“Identification of Plasmodium dipeptidyl aminopeptidase allosteric inhibitors by high throughput screening” (PLoS ONE, 2019)", "note": "About 230 (0.21%) of roughly 110,000 compounds showed an effect of 50% or more. The list shows a part of the results.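 Further: 30 min substrate incubation versus DMSO and 10 µM JCP410 controls.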", "data": [{"molecular_target": "DPAP1 (Plasmodium falciparum, UniProt Q8IIJ9)", "sequence (Q8IIJ9 whole entry, looked up)": "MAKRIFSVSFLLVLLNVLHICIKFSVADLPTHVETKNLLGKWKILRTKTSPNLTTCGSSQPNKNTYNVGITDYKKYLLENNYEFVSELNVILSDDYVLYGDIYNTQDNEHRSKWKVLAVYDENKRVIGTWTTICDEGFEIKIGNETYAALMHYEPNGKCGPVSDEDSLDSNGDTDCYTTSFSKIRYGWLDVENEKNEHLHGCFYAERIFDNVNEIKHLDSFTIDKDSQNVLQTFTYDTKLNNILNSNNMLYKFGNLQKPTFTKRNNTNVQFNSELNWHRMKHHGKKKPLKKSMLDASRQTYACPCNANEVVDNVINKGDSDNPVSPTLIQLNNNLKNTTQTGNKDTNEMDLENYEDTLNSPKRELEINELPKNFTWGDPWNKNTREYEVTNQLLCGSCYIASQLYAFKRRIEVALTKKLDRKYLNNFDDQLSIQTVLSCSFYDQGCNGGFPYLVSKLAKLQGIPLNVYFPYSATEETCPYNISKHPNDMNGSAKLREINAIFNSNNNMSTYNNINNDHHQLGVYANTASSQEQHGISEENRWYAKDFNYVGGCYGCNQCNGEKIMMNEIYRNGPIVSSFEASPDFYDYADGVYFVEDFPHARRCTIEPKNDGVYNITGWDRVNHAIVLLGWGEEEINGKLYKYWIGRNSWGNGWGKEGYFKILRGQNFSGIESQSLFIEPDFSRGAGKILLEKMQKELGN", "experiment": "primary screen, percent inhibition; read by cleavage of a fluorogenic dipeptide substrate; higher = more effect of the substance", "parameters": "species or system P. falciparum D10 trophozoite lysates; single well", "units": {"% Inhibition @ 10 uM": "%"}, "values": [{"smiles": "Cc1c(C)n(CC(O)CNC2CCCCC2)c2ccccc12", "note": "(centres unmarked)", "% Inhibition @ 10 uM": -5.13}, {"smiles": "COC(=O)CC(O)C1CCOC(C)(C)C1", "note": "(centres unmarked)", "% Inhibition @ 10 uM": -5.28}, {"smiles": "OCCN1CCN(Cc2ccccc2)CC1", "% Inhibition @ 10 uM": -3.04}, {"smiles": "COc1cccc(/C=C2\\CC/C(=C\\c3cccc(OC)c3OC)C2=O)c1OC", "% Inhibition @ 10 uM": -8.21}, {"smiles": "COc1ccccc1CN1C(=O)c2ccc(C34CC5CC(CC(C5)C3)C4)cc2C1=O", "% Inhibition @ 10 uM": 4.74}, {"smiles": "CCCCCn1c(=O)c(C(=O)Nc2ccc(N)cc2)c(O)c2ccccc21", "% Inhibition @ 10 uM": 2.46}, {"smiles": "CCOC(=O)c1cc(-c2ccc(F)cc2)n(CC(=O)NC2CCC(C)CC2)c1C", "note": "(centres unmarked)", "% Inhibition @ 10 uM": -1.88}, {"smiles": "O=C1/C(=C/c2ccccn2)N2CCC1CC2", "% Inhibition @ 10 uM": -0.305}, {"smiles": "CC(CNC(=O)CSCc1cnn(-c2ccccc2)c1-n1cccc1)c1ccccc1", "note": "(centres unmarked)", "% Inhibition @ 10 uM": 0.413}, {"smiles": "COC(=O)c1ccc(CSc2n[nH]c(-c3ccncc3)n2)o1", "% Inhibition @ 10 uM": -0.92}, {"smiles": "Cc1cc2oc(C(=O)NC3CCS(=O)(=O)C3)cc(=O)c2cc1C", "note": "(centres unmarked)", "% Inhibition @ 10 uM": -3.24}, {"smiles": "O=C(Nc1nc2ccccc2s1)c1cccc(Br)c1", "% Inhibition @ 10 uM": 9.64}, {"smiles": "COc1cc(N)c(Cl)cc1NC(=O)c1ccccc1", "% Inhibition @ 10 uM": 4.6}, {"smiles": "O=C(COC(=O)c1ccc(C(O)c2ccccc2)cc1)c1ccccc1", "note": "(centres unmarked)", "% Inhibition @ 10 uM": 2.79}, {"smiles": "COc1ccccc1NC(=O)c1cccs1", "% Inhibition @ 10 uM": -1.77}, {"smiles": "CC12CN3CC(C)(CN(C1)C3c1c(O)ccc3ccccc13)C2", "note": "(centres unmarked)", "% Inhibition @ 10 uM": -3.64}, {"smiles": "O=C(Cn1cnc2ccc(Cl)cc2c1=O)c1cccs1", "% Inhibition @ 10 uM": 0.812}, {"smiles": "Cc1cc(OCC(=O)Nc2ccc(S(=O)(=O)Nc3onc(C)c3C)cc2)ccc1Cl", "% Inhibition @ 10 uM": -3.97}, {"smiles": "CC(C)c1ccc(S(=O)(=O)Nc2ccc(O)c(Br)c2)cc1", "% Inhibition @ 10 uM": 2.53}, {"smiles": "O=C(CCCCn1c(=O)[nH]c2ccsc2c1=O)NCc1ccc(Cl)cc1", "% Inhibition @ 10 uM": -7.33}, {"smiles": "O=C(N/C(=C\\c1ccccc1)C(=O)N1CCCCC1)c1ccco1", "% Inhibition @ 10 uM": 2.08}, {"smiles": "O=C(Nc1cccc2c1CCCC2)c1ccc(Br)o1", "% Inhibition @ 10 uM": -0.795}, {"smiles": "CCN1C(=O)S/C(=C/c2ccc(OC)c(C)c2OC)C1=O", "% Inhibition @ 10 uM": -0.116}, {"smiles": "CC(=O)c1ccc(NC(=O)C(C)c2cccc(C(=O)c3ccccc3)c2)cc1", "note": "(centres unmarked)", "% Inhibition @ 10 uM": -1.52}, {"smiles": "COc1ccc(N2C(=O)CC(NCCOC34CC5CC(CC(C5)C3)C4)C2=O)cc1", "note": "(centres unmarked)", "% Inhibition @ 10 uM": -1.07}, {"smiles": "Cc1ccc2nc(NC(C)C(=O)O)nc(-c3ccccc3)c2c1", "note": "(centres unmarked)", "% Inhibition @ 10 uM": 2.38}, {"smiles": "O=C(O)CCNc1cc(C(=O)O)ccc1C(=O)O", "% Inhibition @ 10 uM": 1.42}, {"smiles": "CCOc1ccc(C2NCCc3cc(OCC)c(OC)cc32)cc1", "note": "(centres unmarked)", "% Inhibition @ 10 uM": -0.891}, {"smiles": "Cc1ccc(-c2noc(CCC(=O)NCCN3CCOCC3)n2)cc1", "% Inhibition @ 10 uM": 3.51}, {"smiles": "COCCCNc1ncnc2c1cnn2-c1ccc(Cl)cc1", "% Inhibition @ 10 uM": 5.84}, {"smiles": "Fc1ccc(N2CCN(Cc3ccccc3Cl)CC2)cc1", "% Inhibition @ 10 uM": 1.55}, {"smiles": "Cc1cc(C)c(NS(=O)(=O)c2nc3nc(C)cc(C)n3n2)c(Cl)n1", "% Inhibition @ 10 uM": -5.48}, {"smiles": "COc1ccc2nc3sc(C(=O)N4CC(C)CC(C)C4)cc3cc2c1", "note": "(centres unmarked)", "% Inhibition @ 10 uM": -5.67}, {"smiles": "COc1ccc(C(=O)N2CCC(C(=O)Nc3c(F)cccc3F)CC2)cc1OC", "% Inhibition @ 10 uM": 4.08}, {"smiles": "CCOc1cc(Cl)c(C(C)NC(=O)c2cccnc2)cc1OCC", "note": "(centres unmarked)", "% Inhibition @ 10 uM": -3.09}, {"smiles": "Cn1nc(C(=O)N2CCc3ccccc3C2)c2c1-c1ccccc1S(=O)(=O)C2", "% Inhibition @ 10 uM": 10}, {"smiles": "O=C(Cn1cc(S(=O)(=O)N2CCCC2)c(S(=O)(=O)N2CCCC2)c1)N1CCOCC1", "% Inhibition @ 10 uM": -6.07}, {"smiles": "Cc1ccc(NC(=O)CN2C(=O)N/C(=C/c3cn(C(C)C)c4ccccc34)C2=O)cc1", "% Inhibition @ 10 uM": -2.19}, {"smiles": "O=C(Nc1sc2c(c1C(=O)NC1CCS(=O)(=O)C1)CCCC2)c1ccco1", "note": "(centres unmarked)", "% Inhibition @ 10 uM": 0.161}, {"smiles": "N#Cc1ccc(NC(=O)c2ccc(Cl)cc2)cc1", "% Inhibition @ 10 uM": 0.475}, {"smiles": "O=c1cccc2n1C[C@H]1C[C@@H]2CN(Cc2cc(Cl)cc(Cl)c2O)C1", "% Inhibition @ 10 uM": -0.342}, {"smiles": "O=C(NCCCN1CCCC1=O)c1ccc(Cn2c(SCc3ccccc3)nc3cccnc32)cc1", "% Inhibition @ 10 uM": 1.63}, {"smiles": "CCOc1ccc2oc(=O)cc(CN(Cc3ccco3)C3CCCC3)c2c1", "% Inhibition @ 10 uM": 0.00706}, {"smiles": "Cc1ccc(-n2nnc(-c3nc(-c4cccnc4)no3)c2N)c(C)c1", "% Inhibition @ 10 uM": -3.01}, {"smiles": "NC(=O)/C(=C\\c1ccccc1)NC(=O)c1cccc(Br)c1", "% Inhibition @ 10 uM": -6.77}, {"smiles": "Cc1ccsc1C(C#N)NC(=O)[C@H](CC(C)C)NC(=O)OCc1ccccc1", "note": "(some centres unmarked)", "% Inhibition @ 10 uM": -1.41}, {"smiles": "COc1cccc(CN2CCN(C(=O)c3ccccc3OC)CC2)c1", "% Inhibition @ 10 uM": -1.98}, {"smiles": "C/C(=N\\c1ccc(N(C)C)cc1)C1=C(O)c2ccccc2C1=O", "% Inhibition @ 10 uM": -2.24}, {"smiles": "COc1ccc(CN2Cc3ccccc3C2)cc1", "% Inhibition @ 10 uM": -2.25}, {"smiles": "COc1ccc(CCNCc2cccs2)cc1OC", "% Inhibition @ 10 uM": 0.163}, {"smiles": "Cc1ccc(NC(=O)c2cc(-c3cccs3)nc3ccccc23)cc1Cl", "% Inhibition @ 10 uM": -0.267}, {"smiles": "CCSc1nnc(NC(=O)c2cccc(F)c2)s1", "% Inhibition @ 10 uM": -0.48}, {"smiles": "COc1ccc(CNC(=O)c2cc(S(=O)(=O)N3CCCC(C)C3)ccc2F)cc1", "note": "(centres unmarked)", "% Inhibition @ 10 uM": 1.42}, {"smiles": "COCCNC(=O)C1=CC(c2ccc(C)cc2)=NS(=O)(=O)N1C", "% Inhibition @ 10 uM": -1.06}, {"smiles": "O=C(NCc1nc(-c2ccccc2)no1)c1ccc(Br)o1", "% Inhibition @ 10 uM": 2.14}, {"smiles": "CCOC(=O)N1CCN(C2CCCc3c2[nH]c2ccc(C)cc32)CC1", "note": "(centres unmarked)", "% Inhibition @ 10 uM": -2.88}, {"smiles": "COc1ccc2c(c1)c1nc3cc4ccccc4cc3nc1n2C", "% Inhibition @ 10 uM": -4.11}, {"smiles": "N#C/C(=C\\c1[nH]c2ccccc2c1O)C(=N)N1CCOCC1", "% Inhibition @ 10 uM": 5.37}, {"smiles": "O=C(C1=C(O)C(=O)N(CCOCCO)C1c1ccccc1Cl)c1ccc(Br)cc1", "note": "(centres unmarked)", "% Inhibition @ 10 uM": -3.71}, {"smiles": "Cc1cc(C)c(S(=O)(=O)N2CCCCCC2)cc1S(=O)(=O)N1CCCCCC1", "% Inhibition @ 10 uM": 0.526}, {"smiles": "COc1cc(C(=O)OCCCn2c(=O)c3c(ncn3CCN(C)C)n(C)c2=O)cc(OC)c1OC", "% Inhibition @ 10 uM": 2.14}, {"smiles": "CC(CCc1ccccc1)NC(=S)Nc1cccnc1", "note": "(centres unmarked)", "% Inhibition @ 10 uM": -6.42}, {"smiles": "COc1ccc(CNc2nc(-c3ccco3)nn2C(=O)COc2ccccc2)cc1", "% Inhibition @ 10 uM": 1.9}, {"smiles": "COc1ccc(CNC(=O)c2oc3ccc4nc(N(C)C)sc4c3c2C)cc1", "% Inhibition @ 10 uM": 4.33}, {"smiles": "COc1ccc(C)c2sc(N(CCN(C)C)C(=O)c3ccc(Br)s3)nc12", "% Inhibition @ 10 uM": 6.55}]}]}
